From PubChem BioAssay AID686979 (National Center for Advancing Translational Sciences (NCATS), 2013)
Hit rate of the full screen: of about 420,000 compounds, about 50,000 (12%) were called active. The inconclusive results got no clear call from the source; some entries with a clear call stand among them for comparison. Calls come from the whole dose curve; as a rule, active = well fitted inhibition curve with a large enough effect; inconclusive = small, poorly fitted or top-dose-only effect; inactive = flat fitted curve, though single readings scatter. No potency is given beside an inconclusive call; the fits are too rough.

assay: qHTS for Inhibitors of human tyrosyl-DNA phosphodiesterase 1 (TDP1): qHTS in cells in presence of CPT; conditions: chicken DT40 Tdp1-/-;hTDP1 cells + 20 nM CPT, ATP luminescence, 48 h; activity change, negative = growth inhibition: at 46.2 µM (top of the series) unless noted; note: nearly all actives have a fitted effect of over 55% in size
Outline: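 Chicken DT40 Tdp1-/- cells complemented with human TDP1, 400 cells/well, exposed to compounds plus 20 nM camptothecin for at least 48 h at 37 C; viability read as ATP content by CellTiter-Glo luminescence.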
% is set by controls: 0 for no effect and ±100 for the full control effect; potency is the fitted concentration of half-maximal effect; tags give direction and shape of the fitted curve.

Row | SMILES | Potency | activity change, negative = growth inhibition
1 | Oc1c(Br)cccc1/C=N/Nc1c(F)c(F)c(F)c(F)c1F | inconclusive [inhibitor, single point] | 
2 | O=C(c1ccc(N2CCCC2=O)cc1)N1CCN(c2ccc(C(F)(F)F)cc2[N+](=O)[O-])CC1 | active: 3.66 µM | 
3 | COC1C(O)CC(=O)OC(C)C/C=C/C=C/[C@@H](OC2CCC(N(C)C)C(C)O2)C(C)C[C@@H](CC=O)[C@@H]1O[C@H]1OC(C)[C@H](O[C@@H]2C[C@@](C)(O)C(O)C(C)O2)C(N(C)C)C1O (some centres not stated) | inconclusive [inhibitor, single point] | 
4 | C/C=C/C(=O)OCC(=O)Nc1ccccc1Br | inactive | 
5 | O=C(O)c1ccc(CCCc2ccccc2)cc1 | inactive | 
6 | COC(=O)c1cc(NC(=O)c2ccc([N+](=O)[O-])cc2)c(=O)oc1C | inactive | 
7 | CCn1c(SCC(=O)Nc2cccc(NC(=O)c3cccs3)c2)nnc1-c1ccncc1 | inconclusive [inhibitor, single point] | 
8 | O=C(N/N=C\c1cn(-c2ccccc2)nc1-c1ccccc1)c1ccc(Br)o1 | inconclusive [inhibitor, single point] | 
9 | Cc1ccc(C2c3c(oc4ccccc4c3=O)C(=O)N2c2ccc(C)cn2)cc1 (configuration not stated) | inactive | 
10 | CCOc1ccc2nc(NC(=O)CS(=O)(=O)c3ccc(Cl)cc3)sc2c1 | inconclusive [inhibitor, single point] | 
11 | CCOC(=O)C(C#N)=CN1CCNc2ccccc21 | inactive | 
12 | Cc1cc(NC(=O)CSc2ncnc3c2cnn3-c2cccc(Cl)c2)no1 | inactive | 
13 | O=C(NCC1CCCN1S(=O)(=O)c1cccs1)C(=O)Nc1ccc(F)cc1F (configuration not stated) | inconclusive [inhibitor, single point] | 
14 | Cn1ncc([N+](=O)[O-])c1C(=O)Nc1ccccc1C#N | inactive | 
15 | Cc1ccccc1S(=O)(=O)N1C(c2ccc(Cl)c(Cl)c2)CC=C(C(=O)O)C1c1cccc(Br)c1 (configuration not stated) | inconclusive [inhibitor, single point] | 
16 | COc1ccc(S(=O)(=O)N2CCCCCC2)cc1NC(=O)Cc1ccccc1F | inconclusive [inhibitor, single point] | 
17 | O=C(NC1CCCN(Cc2ccc(Cl)cc2)C1)c1cnc2ccccn2c1=O (configuration not stated) | inconclusive [inhibitor, single point] | 
18 | O=C1CSC(c2cccc(Cl)c2Cl)N1c1ccccn1 (configuration not stated) | inactive | 
19 | COc1ccc(N2CCN(C(=O)c3ccc(CNS(=O)(=O)c4ccc(C)cc4)cc3)CC2)cc1 | inconclusive [inhibitor, single point] | 
20 | Oc1[nH]c2ccccc2c1C=Nc1ccc2c(c1)OCCO2 | inconclusive [inhibitor, partial curve] | 
21 | O=C1OC(c2cccs2)=N/C1=C/c1ccc(-c2cccc(C(=O)O)c2)o1 | inconclusive [inhibitor, partial curve] | 
22 | CCCC1=C(C(=O)OCC)C(c2ccc(O)cc2)n2ncnc2N1 (configuration not stated) | inactive | 
23 | CCc1nnc(NC(=O)[C@@H](NC(=O)c2cccc(S(=O)(=O)N3CCOCC3)c2)C(C)C)s1 | inactive | 
24 | O=C1CN(C(=S)Nc2ccccc2Cl)CCN1 | inactive | 

Row | SMILES | Potency | activity change, negative = growth inhibition
25 | Cc1ccc(/C=N/Nc2cn[nH]c(=O)n2)o1 | inactive | 
26 | O=C(C1CCN(S(=O)(=O)c2cnc[nH]2)CC1)N1CCN(Cc2ccc3c(c2)OCO3)CC1 | active: 20.6 µM | 
27 | COc1ccc(C(=O)NCC(c2ccco2)N2CCc3ccccc32)c(OC)c1 (configuration not stated) | inconclusive [inhibitor, single point] | 
28 | COc1ccc(S(=O)(=O)N2CCC[C@H]2C(=O)NC2=NCCS2)cc1 | inactive | 
29 | CC(=O)c1cccc(NC(=O)C(C)OC(=O)C2=NNC(=O)CC2)c1 (configuration not stated) | inactive | 
30 | O=C(Nc1ccccc1N1CCOCC1)c1ccc(Cl)nc1 | inactive | 
31 | Cc1cc(C)cc(N(CCC#N)C(=O)COC(=O)c2ccc(OCc3c(C)noc3C)cc2)c1 | inactive | 
32 | CCn1c(=O)cc(OCC(=O)N(C)C2CCCCC2)c2ccccc21 | inconclusive [inhibitor, single point] | 
33 | CCCn1c(C)cc(/C=C(\C#N)C(=O)OCC(=O)N(CC)c2c(N)n(Cc3ccccc3)c(=O)[nH]c2=O)c1C | inconclusive [inhibitor, single point] | 
34 | COc1cccc(NC(=O)CSc2nnc(-c3cccc(OC(C)C)c3)n2N)c1 | inconclusive [inhibitor, single point] | 
35 | COc1ccc(-n2nc3c(N4CCCC(C(=O)NCc5ccc(C)cc5)C4)nnc(C)c3c2C)cc1 (configuration not stated) | active: 4.61 µM | 
36 | Cc1sc2ncn(CC(=O)Nc3ccc(F)cc3F)c(=O)c2c1S(=O)(=O)N1CCC(C)CC1 | inactive | 
37 | Cc1ccc(S(=O)(=O)N(C)Cc2nc(-c3ccc(Br)cc3)no2)cc1 | inconclusive [inhibitor, single point] | 
38 | O=C(CC1CCCC1)Nc1nc2ccccc2[nH]1 | inconclusive [inhibitor, single point] | 
39 | CC1=C(C(=O)Nc2ccccn2)C(c2cn(C)nc2C)C2=C(CCCC2=O)N1 (configuration not stated) | inactive | 
40 | CC(C)N1CCCC(C)(C(=O)Nc2nccc3ccccc23)C1 (configuration not stated) | inactive | 
41 | CCOC(=O)c1c(C)[nH]c(C)c1C(=O)COC(=O)C1CC(=O)N(CCc2ccccc2)C1 (configuration not stated) | inactive | 
42 | Cc1ccc(N=Nc2c(N)[nH]n3c(=O)cc(C)nc23)cc1 | inconclusive [inhibitor, single point] | 
43 | COc1ccccc1N(CC(O)CN1CCC(C)CC1)S(=O)(=O)c1ccccc1 (configuration not stated) |  | inconclusive: -14.6% [inhibitor]
44 | Cc1noc(C)c1C(=O)N1CCC2(CC1)CCN(c1cccc(-c3ccccc3)c1)CC2 | inconclusive [inhibitor, partial curve] | 
45 | CCOC(=O)N1CCN(C(=O)CN2C(=O)NC(c3ccccc3)(c3ccccc3)C2=O)CC1 | inactive | 
46 | CCCN1C(=O)/C(=C\c2ccncc2)SC1=Nc1ccccc1 | inconclusive [inhibitor, single point] | 
47 | Cc1ccn2c(C(=O)c3ccc(Cl)cc3)cnc2c1 | inconclusive [inhibitor, single point] | 
